Source: patent publication US12448423 (Xencor, dated 2025)

Target: T1, HIS-tagged human NKG2D (human, UniProt P26718 73-216, limits assumed)
T1 construct: Captured on HIS1K biosensors; not shown: HIS tag
T1 sequence (looked up): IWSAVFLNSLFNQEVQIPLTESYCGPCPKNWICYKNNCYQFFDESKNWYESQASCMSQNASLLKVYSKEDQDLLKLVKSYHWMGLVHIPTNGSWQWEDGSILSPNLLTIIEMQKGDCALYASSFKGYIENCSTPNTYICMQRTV
Assay: Octet (BLI): HIS-tagged human NKG2D captured on HIS1K biosensors, dipped into multiple concentrations of the fusion; global fit, 1:1 Langmuir model

Kd: 3.65 nM
koff: 0.00272 s⁻¹
kon: 745000 M⁻¹ s⁻¹
B1: XENP27195 (Fc fusion)
chain 1: ITCPPPMSVEHADIWVKSYSLYSRERYICNSGFKRKAGTSSLTECVLNKATNVAHWTTPSLKCIRGGGGSGGGGSGGGGSGGGGSGGGGS[omitted - about 120 residues]EPKSSDKTHTCPPCPAPPVAGPSVFLFPPKPKDTLMISRTPEVTCVVVDVKHEDPEVKFNWYVDGVEVHNAKTKPREEEYNSTYRVVSVLTVLHQDWLNGKEYKCKVSNKALPAPIEKTISKAKGQPREPQVYTLPPSREEMTKNQVSLTCDVSGFYPSDIAVEWESDGQPENNYKTTPPVLDSDGSFFLYSKLTVDKSRWEQGDVFSCSVMHEALHNHYTQKSLSLSPGK
chain 2: QVQLVESGGGLVKPGGSLRLSCAASGFTFSSYGMHWVRQAPGKGLEWVAFIRYDGSNKYYADSVKGRFTISRDNSKNTKYLQMNSLRAEDTAVYYCAKDRGLGDGTYFDYWGQGTTVTVSSASTKGPSVFPLAPSSKSTSGGTAALGCLVKDYFPEPVTVSWNSGALTSGVHTFPAVLQSSGLYSLSSVVTVPSSSLGTQTYICNVNHKPSNTKVDKKVEPKSCDKTHTCPPCPAPPVAGPSVFLFPPKPKDTLMISRTPEVTCVVVDVKHEDPEVKFNWYVDGVEVHNAKTKPREEQYNSTYRVVSVLTVLHQDWLNGKEYKCKVSNKALPAPIEKTISKAKGQPREPQVYTLPPSREQMTKNQVKLTCLVKGFYPSDIAVEWESNGQPENNYKTTPPVLDSDGSFFLYSKLTVDKSRWQQGNVFSCSVMHEALHNHYTQKSLSLSPGK
chain 3: QSALTQPASVSGSPGQSITISCSGSSSNIGNNAVNWYQQLPGKAPKLLIYYDDLLPSGVSDRFSGSKSGTSAFLAISGLQSEDEADYYCAAWDDSLNGPVFGGGTKLTVLGQPKAAPSVTLFPPSSEELQANKATLVCLISDFYPGAVTVAWKADSSPVKAGVETTTPSKQSNNKYAASSYLSLTPEQWKSHRSYSCQVTHEGSTVEKTVAPTECS
notes: scIL-15/Rα x Fab format; also called NKG2D(KYK-2.0)-targeted IL-15(N4D/N65D)/Rα-Fc
